In all, about 33,000 sequences were measured (“E-score (-0.5 to 0.5)”: median about -0.032, highest 2% from about 0.36 on). The list shows a part of the results.
Target: T1, Sko1 (UniProt Q02100)
T1 sequence: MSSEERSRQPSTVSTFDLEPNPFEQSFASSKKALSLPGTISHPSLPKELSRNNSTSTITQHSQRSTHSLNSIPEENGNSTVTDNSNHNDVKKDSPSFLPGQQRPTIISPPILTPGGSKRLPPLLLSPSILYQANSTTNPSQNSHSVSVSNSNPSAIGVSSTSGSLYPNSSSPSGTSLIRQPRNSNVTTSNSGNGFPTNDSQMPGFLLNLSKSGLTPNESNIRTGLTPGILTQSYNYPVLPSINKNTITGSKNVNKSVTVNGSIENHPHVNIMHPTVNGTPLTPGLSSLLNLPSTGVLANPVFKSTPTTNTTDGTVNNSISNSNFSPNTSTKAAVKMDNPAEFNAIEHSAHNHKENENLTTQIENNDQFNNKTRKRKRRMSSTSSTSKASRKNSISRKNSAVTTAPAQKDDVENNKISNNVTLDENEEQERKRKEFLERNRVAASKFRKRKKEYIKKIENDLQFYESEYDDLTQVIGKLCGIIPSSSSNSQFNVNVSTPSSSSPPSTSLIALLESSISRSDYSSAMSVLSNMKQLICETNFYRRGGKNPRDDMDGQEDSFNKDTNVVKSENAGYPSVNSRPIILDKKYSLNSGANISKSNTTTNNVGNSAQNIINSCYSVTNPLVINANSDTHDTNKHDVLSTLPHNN
Experiment: PBM E-score (8-mer binding enrichment) (E-score (-0.5 to 0.5)); higher = stronger / more preferred TF binding; most listed sequences are background and not binding sites
Details: protein concentration: 200 nM; construct: GST-full length
Outline: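 Universal all-10-mer Agilent arrays, double-stranded by primer extension on fresh or once-stripped slides, were probed with about 100-200 nM GST-tagged yeast transcription factors made by PURExpress. Fluorescent anti-GST detected bound protein, and masliner normalised the scans. E-scores from the Universal PBM Analysis Suite were given to each ungapped eight-base word pooled with its reverse complement.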

Point of comparison: CCCCCACA, “PBM E-score” value -0.325. Against it:
- AAGCGGAC — higher, -0.269
- CGAGAAAC — higher, -0.116
- AACCGCTT — higher, -0.113
- ATTCGCTG — higher, 0.0204
- ATCGGGAG — higher, -0.138
- GACCGCGC — higher, -0.262
- TACCATGA — higher, 0.0739
- AGGGCCCG — higher, -0.204
- ACCAATCA — higher, 0.0229
- GTCTTTCA — higher, 0.0742
- ACGTTTGC — higher, 0.348
- ACAGACAT — higher, -0.00702
- CCGTCATA — higher, 0.368
- CAATTAGC — higher, -0.00611
- ACACTTTA — higher, 0.0468
- CTGATAAG — higher, -0.0338
- ACTAACTC — higher, 0.0486
- ACGTCGAT — higher, 0.432
- CCACGCCC — higher, -0.165
- ACTTGTCT — higher, -0.0281
- AGACGGGA — higher, -0.199
- ATTCTCCA — higher, 0.0217
- CTGCCGAC — lower, -0.335
- CCCCGGAA — higher, -0.304
- CAACCTGG — higher, 0.0125
- ACATAAAA — higher, 0.277
- AAATCAGA — higher, 0.192
- AACAGTGG — higher, -0.244
- ATCTTTCG — higher, -0.0822
- CCTACCCC — higher, -0.273
- GATAGTAC — higher, -0.00348
- CAGGCACA — higher, -0.0227
- CTAGATGA — higher, 0.0866
- AGAGGTGC — higher, -0.277
- GTAATAAC — higher, 0.319
- GAGGTTTA — higher, -0.0725
- GTGCTGGA — higher, -0.202
- ATGCCGGC — higher, -0.173
- ACGCTAAC — higher, 0.13
- GCGACCGC — higher, -0.172
- GCAAGATA — higher, 0.0422
- CCTGTGGA — lower, -0.362
- ACCCCGCG — higher, -0.251
- GTAGCAGA — higher, 0.124
- CCCCCAAC — higher, -0.0878
- AAGGAAGC — higher, -0.202
- TAGAACCA — higher, 0.0486
- GACGCCAC — higher, 0.255
- ATCGGACC — higher, -0.227
- ATTTAGAG — higher, 0.117
- AAGCGTTA — higher, 0.00636
- CAATTTGC — higher, -0.0265
- GCCCTTCC — higher, -0.252
- AGTGAGTC — higher, -0.0481
- ACCTCAGT — higher, -0.0574
- AGGGTCGA — higher, -0.215
- AGCAGTGA — higher, 0.1
- CCTCAAAG — higher, -0.238
- ATGGTGGA — higher, -0.213
- AACTGTCT — higher, -0.15
- CCGTTTAG — higher, -0.134
- ATATGCAG — higher, -0.161
- GCTGGTCA — higher, -0.204
- AGTCTACA — higher, -0.124
- AGGGGGCG — lower, -0.381
- CAACTGTG — higher, -0.0987
- AGTTCAAC — higher, 0.00417
- ATACTCAA — higher, 0.13
- CATACGAC — higher, 0.261
- CTCCAACA — higher, -0.013
- CATTAGGC — higher, -0.0503
- CATGCCGA — higher, -0.0359
- CTCTATAC — higher, -0.151
- AGCGCTAA — higher, 0.135
- ACCGTTTA — higher, 0.00615
- AAGTTAAG — higher, -0.0113
- ATTAGTGG — higher, 0.0231
- TCTAGAAA — higher, -0.0193
- TAATACGA — higher, 0.327
- CAATCCCC — higher, -0.112
- AGACCTAA — higher, -0.112
- GATATGAC — higher, 0.326
- GGACTCCC — higher, -0.288
- AAATACAG — higher, -0.03
- AATGTGGT — higher, 0.0895
- TAACAAGA — higher, -0.0496
- AATAACCC — higher, -0.148
- CGGACTCA — higher, -0.134
- ATGCAGTG — higher, 0.118
- AATTCGCT — higher, 0.257
- AGCGTGAG — higher, -0.109
- AGGGCTTA — higher, -0.0822
- ACCTTCCA — higher, 0.0421
- ACGACCTA — higher, 0.112
- TCACGCAA — higher, 0.384
- CGTCACTC — higher, 0.418
- AGGGGCTA — higher, -0.209
- CGTGCCAA — higher, -0.0406
- GAGCTGTA — higher, -0.172
- CCCTGTTA — higher, -0.0267
- GGCGGCAC — higher, -0.224
- AGTGGTGG — higher, -0.0736
- AAATAAAT — higher, 0.304
- CATGTGCG — higher, 0.125
- TATAGATA — higher, 0.0243
- CTGGGTCA — higher, -0.128
- ATTCAACG — higher, 0.151
- ATTGTAAA — higher, 0.155
- ACCTATAC — higher, 0.0679

Source: the supplement of paper PMC3334620
